Measurements as given in PubChem BioAssay AID504832 (National Center for Advancing Translational Sciences (NCATS), 2011).
Screen size: about 310,000 compounds; about 18,000 (5.8%) were called active. This list was built around the results that the source calls inconclusive (neither active nor inactive); the mix of calls is not that of the screen. The call rests on the fitted dose curve; in most records, active means well fitted inhibition curve with a large enough effect; inconclusive means small, poorly fitted or top-dose-only effect, or another doubt; inactive means no such curve, though single readings can be large or run the other way. Potencies of inconclusive entries are left out as doubtful fits.

experiment: Primary qHTS for delayed death inhibitors of the malarial parasite plastid, 48 hour incubation; conditions: P. falciparum luciferase growth in erythrocytes; series mostly up to 28.7 µM; activity change, negative = inhibition: at the top concentration
Outline: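 Cell-based growth assay: transgenic P. falciparum expressing firefly luciferase, cultured in red cells within RPMI 1640 containing 0.5% w/v Albumax, 24 mM bicarbonate and gentamycin. A drop in luciferase activity indicates inhibition.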
On the % scale 0 is the no-effect control and ±100 the full control effect; potency means the concentration at half of the fitted maximal effect; tags describe the fitted curve by direction and shape.

SMILES | activity change, negative = inhibition | Potency
Oc1cccc(-c2nc3ccccc3s2)c1 | inactive: 154% | –
COc1cccc(CN2CCCC(N3CCc4ccccc4C3)C2)c1O (stereo not drawn) | – | inconclusive [inhibitor, partial curve]
CC(C)(C)c1ccc(S(=O)(=O)CC(O)CSc2nc3c(cc2C#N)CCCC3)cc1 (stereo not drawn) | inactive: 42.3% | –
COc1ccc(OC)c(CNC(=O)C2CCN(S(=O)(=O)N3CCCCC3)CC2)c1 | inactive: 16.6% | –
CCN1CCN(Cc2nc3cc(NC(=O)COc4ccc([N+](=O)[O-])cc4)ccc3n2C)CC1 | – | inconclusive [inhibitor, single point]
COc1ccc(-c2csc(NC(=O)Cc3ccccc3F)n2)c(OC)c1 | – | inconclusive [inhibitor, partial curve]
COc1ccc(CCC(C)NCCc2ccc(Cl)cc2Cl)cc1 (stereo not drawn) | – | inconclusive [inhibitor, single point]
NC(=O)CC(NC(=O)c1ccccc1)c1ccc(NCCc2cccc(F)c2)c([N+](=O)[O-])c1 (stereo not drawn) | – | inconclusive [inhibitor, single point]
Brc1ccc(Cn2c(-c3ccc(Br)o3)nc3ccccc32)o1 | – | inconclusive [inhibitor, single point]
Cc1cc(C)n2nc(SCc3nc4ccccc4[nH]3)nc2n1 | inactive: 44.6% | –
CCOc1ccc2nc(SCC(=O)NCc3ccc(OC)c(OC)c3)[nH]c2c1 | – | inconclusive [inhibitor, partial curve]
CC1CC2=C(NC(=S)NC2c2ccc(F)cc2)/C(=C/c2ccc(F)cc2)C1 (stereo not drawn) | – | inconclusive [inhibitor, single point]
COc1cc(/C=C/C(=O)OCC(=O)NC2CC2)cc(S(=O)(=O)N2CCc3ccccc32)c1OC | – | inconclusive [inhibitor, single point]
CCc1nc2ccccc2c(C(=O)OCC(=O)Nc2ccc(S(=O)(=O)N3CCOCC3)cc2)c1C | – | active: 9.28 µM
Oc1ccc2ccccc2c1CN1CCN(c2ccccc2)CC1 | – | active: 8.28 µM
COc1ccc(C(=O)NCC2CCCN2S(=O)(=O)c2cccs2)cc1OC (stereo not drawn) | – | inconclusive [inhibitor, single point]
COCCN(Cc1ccccc1)C(=O)C1CCN(S(=O)(=O)c2ccc(OC)c(OC)c2)CC1 | – | inconclusive [inhibitor, partial curve]
N#C/C(=C\c1ccccc1OCc1ccc(C(=O)O)cc1)C(=O)Nc1ccc(O)cc1 | inactive: -7.04% | –
CCCNC(=O)c1ccc2c(c1)ncn2-c1ccccc1OC | – | inconclusive [inhibitor, single point]
COC(=O)c1sc(N)c(C(=O)OC)c1COC(=O)CNS(=O)(=O)c1ccc(C)c(C)c1 | – | inconclusive [inhibitor, partial curve, poor fit]
COc1ccc(/C=C(/NC(=O)c2ccccc2)C(=O)N/N=C/c2ccncc2)cc1 | inactive: 21.9% | –
Fc1ccc(/C=N/NC(=S)Nc2cccnc2)cc1F | inactive: 3.72% | –
O=S(=O)(c1ccc(-c2nnc(SCc3ccccc3)o2)cc1)N1CCCC1 | – | inconclusive [inhibitor, partial curve]

SMILES | activity change, negative = inhibition | Potency
Cc1ccc(S(=O)(=O)Nc2cc(C)cn(Cc3ccc(F)cc3)c2=O)cc1 | – | active: 0.208 µM
CCOc1ccc2nc(NC(=O)COc3ccc(N(C)S(=O)(=O)c4ccc(C)cc4)cc3)sc2c1 | – | active: 2.33 µM
CC1(C)Cc2ccccc2-c2nnc(SCc3ccc(C#N)cc3)n21 | – | inconclusive [inhibitor, partial curve, poor fit]
CCCCNC(=O)c1ccc(Cn2c(=S)[nH]c3c([nH]c4ccc(OC)cc43)c2=O)cc1 | – | inconclusive [inhibitor, full curve, poor fit]
CC(=O)Nc1ccc(C(=O)OCC(=O)c2ccc(F)cc2)cc1 | inactive: 104% | –
COc1cc2cc(C(=O)N3CCN(c4ccccc4OC)CC3)[nH]c2cc1OC | – | inconclusive [inhibitor, partial curve]
C/C=C\C=C\C(=O)Nc1cccc(C2=NOC3(C2)C[C@H](C(N)=O)N(C(=O)c2ccccc2C(=O)c2ccccc2)C3)c1 (stereo partly drawn) | – | inconclusive [inhibitor, partial curve, poor fit]
CC(CNC(=O)CCn1c(=O)c2cccn2c2ccc(F)cc21)c1ccccc1 (stereo not drawn) | – | inconclusive [inhibitor, single point]
COc1ccc(C(=O)/C(C#N)=N/Nc2cccc([N+](=O)[O-])c2)cc1 | inactive: -17.9% | –
COc1cc(OC)cc(C(=O)NC2CC(C)(C)NC(C)(C)C2)c1 | – | inconclusive [inhibitor, full curve, poor fit]
COc1cc(/C=N/NC2=NC(C)(C)Cc3ccccc32)cc(OC)c1OC | – | inconclusive [inhibitor, partial curve, poor fit]
O=[N+]([O-])c1cccnc1N1CCC(c2cc(-c3ccc(Cl)cc3Cl)n[nH]2)CC1 | – | inconclusive [inhibitor, single point]
COc1ccc(CCNC(=O)CCN2C(=O)COc3ccccc32)cc1OC | inactive: -0.858% | –
COc1ccc(N(CC(=O)Nc2cc(C)ccc2C)S(=O)(=O)c2ccccc2[N+](=O)[O-])c(OC)c1 | – | active: 2.94 µM
COc1ccc(C(CNC(=O)CCNC(=O)c2ccccc2OC)N2CCCC2)cc1 (stereo not drawn) | – | inconclusive [inhibitor, partial curve]
CN(C)CCN(C(=O)c1ccccc1Cl)c1nc2c(Cl)cccc2s1 | – | inconclusive [inhibitor, single point]
Cc1ccc(CN2CCN(Cc3ccc(C)s3)CC2CCO)cc1 (stereo not drawn) | inactive: -23.7% | –
Cn1c(=O)c(-c2cc(=O)[nH][nH]2)c(O)c2ccccc21 | inactive: 14.8% | –
O=C(CCNNC(=O)c1ccncc1)NCc1ccccc1 | – | inactive
CCOC(=O)Cc1ncccc1C(=O)Nc1ccc(OC)cc1 | – | active: 13.1 µM
CC1(C)O[C@@H]2C[C@H]3[C@H]4C[C@H](F)C5=CC(=O)CC[C@]5(C)[C@@H]4[C@H](O)C[C@]3(C)[C@]2(C(=O)CO)O1 | inactive: -9.19% [at 12.8 µM] | –
Cc1cc(S(=O)(=O)N(Cc2ccccc2Cl)c2ccc3c(c2)CCC3)ccc1-n1cnnn1 | – | active: 11.7 µM
COc1ccc(OC)c(CC(=O)O)c1 | – | inconclusive [inhibitor, full curve, poor fit]

SMILES | activity change, negative = inhibition | Potency
O=C(CCCCCn1c(=S)[nH]c2ccccc2c1=O)N1CCC2(CC1)OCCO2 | – | active: 8.28 µM
O=c1c2ccccc2nnn1CSc1nnc(-c2cccnc2)n1-c1ccccc1F | – | inconclusive [inhibitor, single point]
CC(C)C(=O)Nc1ccc(C(=O)Nc2ccc(S(=O)(=O)N3CCOCC3)cc2)cc1 | – | inconclusive [inhibitor, partial curve]
O=C(CC(=O)Nc1ccc(Cl)cc1Cl)Nc1ccc(Cl)cc1Cl | inactive: 6.38% | –
COc1cccc(N2CC(C(=O)Nc3nnc(SCCN4CCOCC4)s3)CC2=O)c1 (stereo not drawn) | – | inconclusive [inhibitor, partial curve]
O=C(c1cccc(OCc2ccccc2)c1)N1CCOCC1 | inactive: 52.2% | –
Cc1c(C(=O)Nc2ccc3c(c2)OCCO3)sc2nc(-c3ccccc3)cn12 | – | inconclusive [inhibitor, full curve]
CC(C)(C)OC(=O)N1CCOCCOCCN(C(=O)OC(C)(C)C)CCOCCOCC1 | – | inconclusive [inhibitor, partial curve]
Cc1cccc(N2CCN(C(=O)c3ccc4nc(-c5ccco5)c(-c5ccco5)nc4c3)CC2C)c1 (stereo not drawn) | – | inconclusive [inhibitor, partial curve, poor fit]
CCCCCC(CC(=O)NO)C(=O)NC(C(=O)N1CCCC1CO)C(C)C (stereo not drawn) | – | active: 3.29 µM
Cc1onc(-c2ccccc2Cl)c1C(=O)Nc1ccc(CN2CCCC2)cc1 | – | inconclusive [inhibitor, single point]
CN(C)CCCN(Cc1ccccc1)C(=S)Nc1ccc(OC(F)F)cc1 | – | inconclusive [inhibitor, single point]
CN(C(=O)CN1C(=O)S/C(=C\c2ccc(Cl)cc2)C1=O)C1CCS(=O)(=O)C1 (stereo not drawn) | inactive: -12% | –
Cc1cccc(/C=N\N=C\c2cccc(C)c2)c1 | – | inconclusive [inhibitor, single point]
Cc1nc2ccc(Br)cn2c1NC(C)(C)C | – | inconclusive [inhibitor, single point]
CCn1c(=O)c(=O)[nH]c2cc(C(=O)NC3CC3)ccc21 | inactive: 28.6% | –
O=C(COc1ccc(Cl)cc1)NCc1nnc(SCC(=O)NCc2ccc3c(c2)OCO3)o1 | – | inconclusive [inhibitor, full curve]
O=c1[nH]c2cc3c(cc2cc1CN(Cc1ccc2c(c1)OCO2)Cc1nnnn1CC1CCCO1)OCO3 (stereo not drawn) | – | inconclusive [inhibitor, partial curve, poor fit]
CC(C)Nc1cc(N2CCCC2)ccc1[N+](=O)[O-] | – | inconclusive [inhibitor, single point]
Cc1ccc(NCC(=O)Nc2ccc(Br)cc2)cc1C | – | inconclusive [inhibitor, single point]
CN(CC1CCCO1)S(=O)(=O)c1ccc(C(=O)Nc2nccs2)cc1 (stereo not drawn) | – | inconclusive [inhibitor, partial curve]
Nc1cc(Cl)nc(N/N=C/c2c(O)ccc3ccccc23)n1 | – | inconclusive [inhibitor, single point]
